Reference: the antibiotic and cytotoxicity screens of Wong et al. (2023)
This is one part of the list.

Key:
[1] = tested on: HSkMC (human skeletal muscle cells); assay: cytotoxicity call (relative viability < 0.9); conditions: 10 µM
[2] = tested on: S. aureus RN4220; assay: growth inhibition call (relative growth <= 0.2); conditions: 50 µM

SMILES | cytotoxicity call [1] | growth inhibition call [2]
CN(C)C(=O)C[C@@H]1C=C[C@H](NC(=O)C2CC2)[C@@H](CO)O1 | inactive | inactive
CCS(=O)(=O)Nc1ccc2c(c1)C(=O)N(C)[C@@H]1CC[C@H](CC(=O)N[C@H]3CCN(Cc4ccccc4)C3)O[C@H]1CO2 | inactive | inactive
CO[C@@H]1CN(C)C(=O)c2cc(NC(=O)Nc3ccccc3F)ccc2OC[C@H](C)N(Cc2ccccc2C(=O)O)C[C@H]1C | inactive | inactive
CC(C)NC(=O)Nc1ccc2c(c1)CC(=O)N([C@@H](C)CO)C[C@@H](C)[C@H](CN(C)Cc1ccc(-c3ccccc3)cc1)O2 | inactive | inactive
COCCCN1C(=O)[C@@]2(Cc3ccccc31)c1ccccc1C(=O)N(C1CCCCC1)[C@H]2c1ccc(CO)cc1 | inactive | inactive
C[C@H]1CN([C@@H](C)CO)C(=O)Cc2cc(NC(=O)Cc3ccccc3)ccc2O[C@@H]1CN(C)Cc1ccc(Oc2ccccc2)cc1 | inactive | inactive
Cc1cc(C(=O)O)c(=O)[nH]c1C | inactive | inactive
C[C@H](CO)N1C[C@H](C)[C@@H](CN(C)CC2CCCCC2)OCc2ccccc2-c2c(n(C)c3ccccc23)C1=O | inactive | inactive
C[C@@H]1CCCCO[C@H](CN(C)Cc2ccccc2)[C@@H](C)CN([C@@H](C)CO)C(=O)c2cc(NS(=O)(=O)c3cccs3)ccc2O1 | inactive | inactive
CN(C)C(=O)CN1CCC2(CC1)CN(CCn1cccn1)C(=O)CO2 | inactive | inactive
CNC(=O)C[C@@H]1CC[C@H]2[C@@H](COC[C@H](O)CN2C(=O)c2ccc3c(c2)OCO3)O1 | inactive | inactive
C[C@H]1CN([C@@H](C)CO)C(=O)c2cccc(NC(=O)C3CCOCC3)c2O[C@H]1CN(C)Cc1ccncc1 | inactive | inactive
CCS(=O)(=O)N1C[C@]2(CCN(CC2)S(=O)(=O)c2cn(cn2)C)c2c([nH]c3cc(ccc23)OC)[C@@H]1CO | inactive | inactive
Cc1ccc(S(=O)(=O)Nc2ccc3c(c2)C(=O)N([C@@H](C)CO)C[C@H](C)[C@H](CN(C)C(=O)Nc2ccc(F)cc2)OCCCC[C@@H](C)O3)cc1 | inactive | inactive
O=c1/c(=C\c2ccc(F)cc2)sc2n1CCN=2 | inactive | inactive
O=c1[nH]c(=O)n(C2CC(O)C(CO)O2)cc1C(F)(F)F (stereo unspecified) | inactive | inactive
Cc1ccc(S(=O)(=O)Nc2ccc3c(c2)C(=O)N([C@H](C)CO)C[C@H](C)[C@H](CN(C)C(=O)Nc2c(C)noc2C)OCCCC[C@@H](C)O3)cc1 | inactive | inactive
Cc1ccc(S(=O)(=O)Nc2ccc3c(c2)CC(=O)N([C@@H](C)CO)C[C@H](C)[C@@H](CN(C)Cc2ccncc2)O3)cc1 | inactive | inactive
C[C@H](CO)N1C[C@H](C)[C@H](CN(C)C(=O)Nc2ccc(C(F)(F)F)cc2)OCCCC[C@H](C)Oc2ccc(NC(=O)CCC(F)(F)F)cc2C1=O | inactive | inactive
CC(=O)n1cc([C@@H]2C=C(C(=O)N3CCN(Cc4ccc5c(c4)OCO5)CC3)O[C@H](OCc3ccc(COC(=O)NCCCCCC(=O)NO)cc3)C2)c2ccccc21 | inactive | inactive
C[C@@H]1CN([C@@H](C)CO)C(=O)c2cc(C#CCN(C)C)cnc2O[C@H]1CN(C)Cc1ccc(C(=O)O)cc1 | inactive | inactive
CO[C@H](CN(C)C(=O)Nc1ccc(C(F)(F)F)cc1)[C@@H](C)CN(Cc1ccccc1Cl)[C@@H](C)CO | inactive | inactive
Clc1ccc(C(Cn2ccnc2)OCc2c(Cl)cccc2Cl)c(Cl)c1.O=[N+]([O-])O (stereo unspecified) | inactive | inactive
Cc1noc(C)c1NC(=O)N(C)C[C@H]1OCCCC[C@@H](C)Oc2ccc(NC(=O)Nc3ccccc3)cc2C(=O)N([C@@H](C)CO)C[C@H]1C | inactive | inactive
O=C(C[C@H]1C[C@@H]2c3cc(NC(=O)c4ccc5c(c4)OCO5)ccc3O[C@@H]2[C@H](CO)O1)NCc1ccc(Oc2ccccc2)cc1 | inactive | inactive
O=C(C[C@H]1C=C[C@@H](NS(=O)(=O)c2ccccc2)[C@H](CO)O1)NCc1ccncn1 | inactive | inactive
COc1cc(C=CC(=O)O)ccc1O | inactive | inactive
C[C@@H]1CCCCO[C@H](CN(C)C(=O)Cc2ccccc2)[C@@H](C)CN([C@H](C)CO)C(=O)c2cc(NS(=O)(=O)c3ccc(F)cc3)ccc2O1 | inactive | inactive
